± gives the standard deviation of the averaged measurements. In all, about 33,000 sequences were measured (“E-score (dimensionless, -0.5 to 0.5)”: median about -0.046, highest 2% from about 0.36 on). The list shows a part of the results.
tested on: T1, SpTbr T-box DNA-binding domain (GST fusion); assay: PBM E-score of 8-mer (E-score (dimensionless, -0.5 to 0.5)); Tbr is Tbrain of the sea star Patiria miniata (Pm) or the sea urchin Strongylocentrotus purpuratus (Sp); higher = stronger binding preference; most listed sequences are background and not binding sites; conditions: the construct has about 5 more residues each side
T1 sequence: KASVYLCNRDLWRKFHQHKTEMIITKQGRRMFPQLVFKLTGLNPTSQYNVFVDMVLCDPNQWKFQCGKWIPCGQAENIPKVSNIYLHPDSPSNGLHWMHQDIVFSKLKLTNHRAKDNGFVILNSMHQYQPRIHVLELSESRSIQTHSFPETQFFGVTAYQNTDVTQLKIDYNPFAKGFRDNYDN
In short: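 Universal Agilent oligonucleotide arrays, made double-stranded by primer extension, were incubated with 200 nM GST-fused Tbr T-box DNA-binding domain in PBS (pH 7.5). The protein was expressed in BL21 E. coli at 20 °C and purified by glutathione affinity chromatography. After scanning and quantification, the Universal PBM Analysis Suite assigned an enrichment E-score to each ungapped 8-mer, averaged over duplicate arrays.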

Sequence	PBM E-score of 8-mer
TTGTCAAA	0.0897 ± 0.09
GTACTCAC	0.151 ± 0.1
AAGTAAAG	-0.1625 ± 0.00038
TAGGTAGA	-0.0909 ± 0.078
ATTCCCAG	-0.277 ± 0.057
CCTTCAAA	-0.22 ± 0.0023
GTCAATGA	0.078 ± 0.036
ACTGAGCT	-0.112 ± 0.04
CTGAGATA	-0.0665 ± 0.054
AAAGACTT	-0.322 ± 0.041
CAAGGCGC	0.244 ± 0.051
AAAATGCG	-0.0352 ± 0.056
GGGTGCAA	0.271 ± 0.017
TAAAGATA	-0.108 ± 0.028
GGGAAAGA	-0.192 ± 0.041
CTTCACTA	0.0992 ± 0.0044
ACGCTAGA	-0.0158 ± 0.03
ACCGAGGA	-0.0878 ± 0.039
TAGTGCCA	0.195 ± 0.009
ATCAAGTA	-0.0375 ± 0.031
TAGTAAAA	-0.123 ± 0.027
CCATACGA	-0.166 ± 0.025
ACAATCTG	-0.0048 ± 0.032
AGTATGTA	-0.11 ± 0.017
ACACCGGC	0.185 ± 0.022

Sequence	PBM E-score of 8-mer
CGACTGTA	-0.133 ± 0.081
AAGCAGTC	-0.178 ± 0.019
TATCCTAA	0.0265 ± 0.058
CCAGCTCC	-0.184 ± 0.037
GAATTGCA	0.0351 ± 0.036
ATACCTAC	-0.163 ± 0.011
GATGACCC	0.12 ± 0.0038
ACTCGAAC	-0.0956 ± 0.095
AGACTGCG	0.0627 ± 0.0045
TATTCTGA	0.0251 ± 0.075
CTATGGAG	-0.197 ± 0.03
AAGTTTAC	0.0364 ± 0.022
GCTTGAGA	-0.073 ± 0.0077
AGTACGGC	-0.21 ± 0.041
ATAGTTTA	-0.165 ± 0.026
CTAGACGA	-0.055 ± 0.085
ACACCGGG	0.0988 ± 0.0072
AGACTGGG	-0.319 ± 0.017
ATAAAGCA	-0.0541 ± 0.0029
ATATCAAG	-0.169 ± 0.098
CATACAGG	-0.183 ± 0.069
AGATGTAA	0.0577 ± 0.039
CCCCTGAG	-0.123 ± 0.053
CTATCATC	-0.0143 ± 0.024
ACTGAGGG	-0.0572 ± 0.017

Sequence	PBM E-score of 8-mer
CGGTCCAA	-0.173 ± 0.065
AGGAACTA	-0.0834 ± 0.063
ATAGGAAG	-0.202 ± 0.0077
ATGCCAGG	-0.0854 ± 0.07
CGTGATCA	0.212 ± 0.02
AATCGTTA	0.168 ± 0.012
TCCACGGA	-0.0375 ± 0.11
ATATGCCC	-0.151 ± 0.026
GGCGCTGA	0.155 ± 0.0088
ATCATGGC	0.0527 ± 0.065
ACATGTCG	0.193 ± 0.043
GTTTTCAA	-0.0562 ± 0.0072
GGAGCATA	-0.0848 ± 0.03
CCGCCACG	0.0921 ± 0.016
CACCGTTC	0.0585 ± 0.0023
ACTTGGTC	0.0521 ± 0.045
ACTATGGG	-0.00804 ± 0.0047
AGTCGTCC	-0.204 ± 0.026
ACTGCCAC	0.262 ± 0.018
AAGCATAC	-0.132 ± 0.0093
CCAACCGG	-0.0391 ± 0.027
AGTTCCTC	-0.102 ± 0.057
TGGACCAA	-0.171 ± 0.038
ATAGACAC	0.122 ± 0.03
AGATACAC	0.142 ± 0.054

Sequence	PBM E-score of 8-mer
ACCGGGCT	-0.179 ± 0.022
GCCGATCA	0.00117 ± 0.051
GATTCGAA	0.063 ± 0.011
ACTAATTA	-0.108 ± 0.018
CACCATCC	0.15 ± 0.015
CATCACAC	0.451 ± 0.0075
AGATTGCT	-0.171 ± 0.029
AAATCAGC	-0.00937 ± 0.072
GAACAATC	0.00187 ± 0.0055
CATGCAGG	-0.0914 ± 0.0066
CTTCGCCC	-0.0235 ± 0.028
AGTGATGC	0.0277 ± 0.014
GTTGAATA	-0.136 ± 0.0064
AAATGAGC	-0.157 ± 0.013
ATATCCAC	0.0331 ± 0.025
CGTACCTC	-0.108 ± 0.025
ATTCGGCG	0.0846 ± 0.0025
AGGCGTAT	0.0269 ± 0.047
CAACGCAA	0.156 ± 0.004
GGCGAACA	0.137 ± 0.018
ACATGGGG	-0.06449 ± 0.00059
CCCGGCGG	-0.0358 ± 0.092
CGTCGTCC	-0.141 ± 0.0069
GCTAACAC	0.417 ± 0.0044
CCCATAAG	-0.12 ± 0.083

Sequence	PBM E-score of 8-mer
ACCCTAGG	0.146 ± 0.046
AGCCTCCT	-0.124 ± 0.048
AATGGCTA	-0.134 ± 0.02
GGGTATGA	-0.0544 ± 0.061
CCAAAAGA	-0.0816 ± 0.016
AGGCGAGC	-0.233 ± 0.11
CACCGACG	0.233 ± 0.041
GTTAGCAA	0.281 ± 0.014
AACCAGGC	-0.0137 ± 0.052
TCGTGAGA	0.2742 ± 0.0015
CTCGCACC	0.451 ± 0.016
AAAGGCGC	0.143 ± 0.02
TCAAGTCA	0.0173 ± 0.035
GTCCGGCA	-0.208 ± 0.052
ACGTTTTC	0.0181 ± 0.036
AAGAATTC	-0.22 ± 0.027
GTCTGAAC	-0.179 ± 0.056
AAGGCGAA	-0.0734 ± 0.06
AGGCAACC	-0.0351 ± 0.077
ATTAAAAA	-0.19 ± 0.055
ATATGAAC	-0.242 ± 0.0091
ACCGGCAT	-0.035 ± 0.036
CCAGTGAC	0.2 ± 0.064
GTCACGGA	0.02225 ± 0.00018
CAGATTGG	-0.222 ± 0.04

Sequence	PBM E-score of 8-mer
AAGAAGTA	-0.119 ± 0.082
AAGATACA	-0.0756 ± 0.027
ATATGGGG	-0.0719 ± 0.065
AGAGAGCG	-0.156 ± 0.15
CACCAAGC	0.129 ± 0.017
CAGTCCCC	0.0758 ± 0.019
ATGGGGGC	-0.283 ± 0.021
GGTCTGTA	-0.105 ± 0.027
CACAAATG	0.0142 ± 0.013
ACTAGACG	-0.0329 ± 0.087
GCGGACCC	-0.0093 ± 0.057
GTACGGCA	-0.125 ± 0.056
CAACGGAA	-0.0672 ± 0.0065
GCTAGTGA	0.107 ± 0.08
CCGGTTAG	-0.097 ± 0.034
CGGCGCAG	-0.146 ± 0.01
ACCCTCAT	-0.034 ± 0.0071
AGTACCAC	0.0848 ± 0.013
AACGAGTG	0.207 ± 0.035
TAACAGGA	0.0565 ± 0.05
ATACTCCG	-0.0529 ± 0.022
GCCGATAC	-0.0846 ± 0.051
CGAAATGC	-0.00805 ± 0.018
CACGCATC	0.29 ± 0.06
CAACAATA	0.0592 ± 0.055

Sequence	PBM E-score of 8-mer
ACCCCCCT	-0.162 ± 0.03
TACTGTCA	0.225 ± 0.018
AGGATTCA	0.00326 ± 0.075
CTGGAGTC	-0.327 ± 0.041
CTCCAAGA	-0.0401 ± 0.032
CTACCGAA	-0.121 ± 0.044
CGCCTAAC	0.0936 ± 0.028
GGCTAGTA	-0.0663 ± 0.054
AGTTAGGA	-0.154 ± 0.055
ACTTCCCG	0.194 ± 0.014
ACCCTCGT	0.0993 ± 0.059
AATTGCGC	0.0489 ± 0.068
CATGGTAA	-0.0644 ± 0.039
ACGTATAC	0.115 ± 0.0037
CTTTCCAC	0.168 ± 0.052
AGGAATGA	-0.0977 ± 0.051
GTGCGACA	0.398 ± 0.012
AGTTAGTC	-0.00951 ± 0.033
ACGCAAGT	0.133 ± 0.0079
CGTATCGA	0.0888 ± 0.052
CGTGGGCA	-0.00054 ± 0.027
CCACTCGA	0.0269 ± 0.035
